Measurements published in a collection of fitness landscapes (doi:10.1016/j.celrep.2020.107928).
Over roughly 81,000 sequences, “one-hybrid fitness for binding parS DNA” has its median near -0.17; the highest 2% begin near 0.51. The list shows a part of the results.

B1: Caulobacter ParB omega fusion; a variant is named by its letters at X, in order, B8GW30 (parent)
chain: MESVVVGEPGMSEGRRGLGRGLSALLGEVDAAPAQAPGEQLGGSREAPIEILQRNPDQPRRTFREEDLEDLSNSIREKGVLQPILVRPSPDTAGEYQIVAGERAWRAAQRAGLKTVPIMVRELDDLAVLEIGIIENVQRADLNVLEEALSYKVLMEKFERTQENIAQTIGKSXSHVANXMRLLXLPDEVQSYLVSGELTAXHARAIAAAADPVALAKQIIEGGLSVRETEALARKAPNLSAGKSKGGRPPRVKDTDTQALESDLSSVLGLDVSIDHRGSTGTLTITYATLEQLDDLCNRLTRGI

Variants of: B1
Assay: one-hybrid fitness for binding parS DNA (scaled: cognate 1, non-cognate 0); higher = stronger binding
Details: with parS DNA site
Procedure, shortened: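 Caulobacter ParB libraries with four specificity codons randomised were screened by bacterial one-hybrid selection in the E. coli USO strain, using a HIS3 reporter whose site lies 19 bp from the promoter. Selection ran for 48 hours at 37°C on M9 lacking histidine, with 0.1 mM IPTG and 5 mM 3-AT. Plasmids were Illumina-sequenced before and after selection, three replicate libraries were pooled, and variants with under 10 reads were dropped. Fitness is the log change in each variant's read ratio to wild type, rescaled against the cognate and non-cognate sites.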

Variant | one-hybrid fitness for binding parS DNA
IIGC | ≤ 0.2
QVIV | ≤ 0.2
PCSF | ≤ 0.2
QYMN | ≤ 0.2
KQGR | ≤ 0.2
WELC | ≤ 0.2
TPTI | ≤ 0.2
RKDT | 0.832
CASR | ≤ 0.2
FGKS | ≤ 0.2
PYTA | ≤ 0.2
SGLT | ≤ 0.2
CQGE | ≤ 0.2
WNST | ≤ 0.2
QGPD | ≤ 0.2
MTDG | ≤ 0.2
QAAD | ≤ 0.2
HHCS | ≤ 0.2
HVCG | ≤ 0.2
KWAE | ≤ 0.2
QWLR | ≤ 0.2
RKGP | ≤ 0.2
PYMT | ≤ 0.2
RNLC | 0.736

Variant | one-hybrid fitness for binding parS DNA
LRYL | ≤ 0.2
YTFW | ≤ 0.2
IQGL | ≤ 0.2
TDKQ | ≤ 0.2
QDIT | ≤ 0.2
NHRE | ≤ 0.2
QGAE | ≤ 0.2
QVGV | ≤ 0.2
RDQD | ≤ 0.2
ERVW | ≤ 0.2
HWFS | ≤ 0.2
RRPS | 0.757
SFAG | ≤ 0.2
RTNI | ≤ 0.2
NRGG | ≤ 0.2
TMPK | ≤ 0.2
LFSG | ≤ 0.2
TRNS | ≤ 0.2
KYVG | ≤ 0.2
LCPG | ≤ 0.2
GRGK | ≤ 0.2
IILL | ≤ 0.2
DTRY | ≤ 0.2
RPAI | ≤ 0.2

Variant | one-hybrid fitness for binding parS DNA
SYKF | ≤ 0.2
QRVP | ≤ 0.2
MMTM | ≤ 0.2
PDAL | ≤ 0.2
TATI | ≤ 0.2
QLDQ | ≤ 0.2
EWFG | ≤ 0.2
QQVI | ≤ 0.2
QKTM | ≤ 0.2
MSAL | ≤ 0.2
LQPR | ≤ 0.2
HYAC | ≤ 0.2
QKQP | ≤ 0.2
EGPT | ≤ 0.2
RFNE | ≤ 0.2
RSMN | 0.402
PVWA | ≤ 0.2
RLSI | ≤ 0.2
MRWR | ≤ 0.2
HNSF | ≤ 0.2
SDQR | ≤ 0.2
YHFG | ≤ 0.2
DESG | ≤ 0.2
RWEF | ≤ 0.2

Variant | one-hybrid fitness for binding parS DNA
HLSK | ≤ 0.2
VGYT | ≤ 0.2
ERSG | ≤ 0.2
YELS | ≤ 0.2
TNPI | ≤ 0.2
NPMG | ≤ 0.2
ITTM | ≤ 0.2
KYLA | ≤ 0.2
KFMT | ≤ 0.2
IPHA | ≤ 0.2
FMPE | ≤ 0.2
TVEE | ≤ 0.2
QQLH | ≤ 0.2
ASLW | ≤ 0.2
LTST | ≤ 0.2
DVNC | ≤ 0.2
RFKA | 0.571
EGAF | ≤ 0.2
LIDT | ≤ 0.2
ITRP | ≤ 0.2
KAAS | ≤ 0.2
DYWM | ≤ 0.2
QSST | ≤ 0.2
RMSI | ≤ 0.2

Variant | one-hybrid fitness for binding parS DNA
RTDD | ≤ 0.2
LFFT | ≤ 0.2
HLTH | ≤ 0.2
HPQH | ≤ 0.2
TYVG | ≤ 0.2
YQVL | ≤ 0.2
DMNC | ≤ 0.2
QYVT | ≤ 0.2
LNHV | ≤ 0.2
DLDS | ≤ 0.2
QGNM | ≤ 0.2
IQLF | ≤ 0.2
ASNG | ≤ 0.2
NSHF | ≤ 0.2
QPFL | ≤ 0.2
QHNE | ≤ 0.2
IAPC | ≤ 0.2
REGY | ≤ 0.2
TQHR | ≤ 0.2
CTVR | ≤ 0.2
PKTY | ≤ 0.2
CHYV | ≤ 0.2
GRAL | ≤ 0.2
PWFN | ≤ 0.2

Variant | one-hybrid fitness for binding parS DNA
CYSG | ≤ 0.2
HVDW | ≤ 0.2
TMVT | ≤ 0.2
HCAC | ≤ 0.2
QQIR | ≤ 0.2
DDPL | ≤ 0.2
NDGK | ≤ 0.2
DAPD | ≤ 0.2
WFLP | ≤ 0.2
PFSS | ≤ 0.2
SLGG | ≤ 0.2
PCNG | ≤ 0.2
SRRS | ≤ 0.2
HRNA | ≤ 0.2
ARRP | ≤ 0.2
RIAK | ≤ 0.2
TPRS | ≤ 0.2
TPQR | ≤ 0.2
GYVR | ≤ 0.2
NKYC | ≤ 0.2
WTQC | ≤ 0.2
RPCS | ≤ 0.2
QEKA | ≤ 0.2
LKRS | ≤ 0.2

Variant | one-hybrid fitness for binding parS DNA
RVFG | 0.993
LATT | ≤ 0.2
HSEC | ≤ 0.2
GTSM | ≤ 0.2
VMCS | ≤ 0.2
YSAT | ≤ 0.2
PKNY | ≤ 0.2
CLSC | ≤ 0.2
GRRK | ≤ 0.2
TALE | ≤ 0.2
TPRI | ≤ 0.2
HRMM | ≤ 0.2
FDSL | ≤ 0.2
ITEG | ≤ 0.2
HNRG | ≤ 0.2
RAFQ | ≤ 0.2
GSPS | ≤ 0.2
GWLM | ≤ 0.2
KPFA | ≤ 0.2
RQGI | ≤ 0.2
CCYR | ≤ 0.2
QDHM | ≤ 0.2
DVLS | ≤ 0.2
IRGF | ≤ 0.2

Variant | one-hybrid fitness for binding parS DNA
RMWC | 0.984
RVLG | 0.992
PKAT | ≤ 0.2
YRLP | ≤ 0.2
RPPL | ≤ 0.2
YPAC | ≤ 0.2
SCHF | ≤ 0.2
KPVT | ≤ 0.2
PNMK | ≤ 0.2
WRHL | ≤ 0.2
SLFV | ≤ 0.2
NFHG | ≤ 0.2
HFAS | ≤ 0.2
TMLN | ≤ 0.2
QTGY | ≤ 0.2
KYWS | ≤ 0.2
YRGS | 0.356
QRVC | ≤ 0.2
NEIT | ≤ 0.2
HTHT | ≤ 0.2
SRMM | ≤ 0.2
SRAI | ≤ 0.2
RCHG | 0.994
LEPD | ≤ 0.2

Variant | one-hybrid fitness for binding parS DNA
TRVQ | ≤ 0.2
FGRL | ≤ 0.2
CCPS | ≤ 0.2
HLSG | ≤ 0.2
LAKT | ≤ 0.2
YETG | ≤ 0.2
RYHQ | ≤ 0.2
QEHF | ≤ 0.2
RHVN | 0.302
MTTA | ≤ 0.2
PDTD | ≤ 0.2
YSEY | ≤ 0.2
LTIS | ≤ 0.2
WTRS | ≤ 0.2
SDTY | ≤ 0.2
SMCF | ≤ 0.2
ISLN | ≤ 0.2
NWKT | ≤ 0.2
RVLT | 0.92
YYCC | ≤ 0.2
FYDV | ≤ 0.2
ACVN | ≤ 0.2
YDCG | ≤ 0.2
IRYT | ≤ 0.2

Variant | one-hybrid fitness for binding parS DNA
TRWC | ≤ 0.2
AIEC | ≤ 0.2
AEHT | ≤ 0.2
RNFG | 0.662
KRES | ≤ 0.2
AGHS | ≤ 0.2
KPTY | ≤ 0.2
NPQV | ≤ 0.2
IRCC | ≤ 0.2
KYWL | ≤ 0.2
DFHG | ≤ 0.2
HVWT | ≤ 0.2
NPTS | ≤ 0.2
YQQS | ≤ 0.2
WWRT | ≤ 0.2
STGI | ≤ 0.2
GIHR | ≤ 0.2
ISDW | ≤ 0.2
TKMW | ≤ 0.2
NSRT | ≤ 0.2
KSPN | ≤ 0.2
RKCK | ≤ 0.2
QQKE | ≤ 0.2
HGGT | ≤ 0.2

Variant | one-hybrid fitness for binding parS DNA
RLIE | ≤ 0.2
SESS | ≤ 0.2
PPGE | ≤ 0.2
NVPW | ≤ 0.2
KMAF | ≤ 0.2
RIPV | ≤ 0.2
SSVN | ≤ 0.2
KHTA | ≤ 0.2
TDNG | ≤ 0.2
SDYC | ≤ 0.2
GTAA | ≤ 0.2
PTTV | ≤ 0.2
CTYT | ≤ 0.2
NACR | ≤ 0.2
HSCL | ≤ 0.2
IMSS | ≤ 0.2
LDKY | ≤ 0.2
RCTH | 0.249
WHPE | ≤ 0.2
RKCN | 0.302
IDWR | ≤ 0.2
FWQG | ≤ 0.2
KLQV | ≤ 0.2
DGKC | ≤ 0.2

Variant | one-hybrid fitness for binding parS DNA
KWLC | ≤ 0.2
LWIG | ≤ 0.2
GRHY | ≤ 0.2
CDMC | ≤ 0.2
KGIV | ≤ 0.2
SPTN | ≤ 0.2
TNES | ≤ 0.2
VVMR | ≤ 0.2
RNCQ | ≤ 0.2
HGMN | ≤ 0.2
GCPR | ≤ 0.2
QNTW | ≤ 0.2
KVWG | ≤ 0.2
YAQA | ≤ 0.2
QRKC | ≤ 0.2
TYNQ | ≤ 0.2
VYRL | ≤ 0.2
MHLM | ≤ 0.2
KNIR | ≤ 0.2
HLAS | ≤ 0.2
IIHM | ≤ 0.2
STEV | ≤ 0.2
FTIG | ≤ 0.2
QLQM | ≤ 0.2

Variant | one-hybrid fitness for binding parS DNA
QVNS | ≤ 0.2
YQFS | ≤ 0.2
HQYR | ≤ 0.2
ESHA | ≤ 0.2
FFPS | ≤ 0.2
VPPR | ≤ 0.2
RTIW | 0.211
YRTS | 0.304
CDHT | ≤ 0.2
QDRD | ≤ 0.2
VDEA | ≤ 0.2
TWTT | ≤ 0.2
QNWW | ≤ 0.2
RIIL | ≤ 0.2
CTYA | ≤ 0.2
PSMC | ≤ 0.2
KGRA | ≤ 0.2
CLQG | ≤ 0.2
